Measurements taken from patent US20220193124A1, “Therapeutic Agent for Flavivirus Infection” (NEOPHARMA JAPAN CO., LTD., priority 2019, published 2022).

Tested on: cells infected with the Japanese encephalitis virus Nakayama strain (JEV Nakayama)
Assay: Cell toxicity in Japanese encephalitis virus infected cells, optical microscope observation
Settings: 0.2 mM; treated for 2 days; FIG. 18

Q: Which “cell toxicity (detachment of cells)” value does the source give for `Cl.NCC(=O)CCC(=O)O` [5-ALA, 5-aminolevulinic acid hydrochloride] here?
A: did not show detachment
